Experimental data taken from the supplement of paper PMC12217912.
The other results are listed elsewhere or left out. The full chains were built here from the parent and the listed change. Values near 0.05 are background.

B1: TEV protease; numbered along this chain (parent)
chain: MGESLFKGPRDYNPISSSICHLTNESDGHTTSLYGIGFGPFIITNKHLFRRNNGTLVVQSLHGVFKVKDTTTLQQHLVDGRDMIIIRMPKDFPPFPQKLKFREPQREERICLVTTNFQTKSMSSMVSDTSCTFPSGDGIFWKHWIQTKDGQCGSPLVSTRDGFIVGIHSASNFTNTNNYFTSVPKNFMELLTNQEAQQWVSGWRLNADSVLWGGHKVFMVKPEEPFQPVKEATQL

Variants of: B1
Experiment: raw area under fraction-flipped curve 0-4 h after induction (AUC4h, not background-subtracted), DNA-recorder readout of cleavage of the substrate (dimensionless); higher = more cleavage of the substrate by the protease variant
Conditions: temperature: 34 °C; time window: 0-4 h after rhamnose induction
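Note: Bxb1 expression induced with 0.2% (w/v) L-rhamnose at OD600 near 0.5, cultures sampled hourly, flipped fraction per protease–substrate barcode pair counted by paired-end Illumina sequencing.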

| Variant | area with substrate EALYFQS | area with substrate ECLYFQS | area with substrate EDLYFQS | area with substrate EELYFQS | area with substrate EFLYFQS | area with substrate EGLYFQS | area with substrate EHLYFQS | area with substrate EKLYFQS | area with substrate ELLYFQS | area with substrate EMLYFQS | area with substrate EQLYFQS | area with substrate ESLYFQS | area with substrate ETLYFQS | area with substrate EVLYFQS | area with substrate EILYFQS | area with substrate EPLYFQS | area with substrate EWLYFQS | area with substrate EYLYFQS | area with substrate ERLYFQS |
| --- | --- | --- | --- | --- | --- | --- | --- | --- | --- | --- | --- | --- | --- | --- | --- | --- | --- | --- | --- |
| K185G | 0.0954 | 0.113 | 0.12 | 0.143 | 0.0891 | 0.102 | 0.12 | 0.122 | 0.102 | 0.129 | 0.145 | 0.106 | 0.124 | 0.104 |  |  |  |  |  |
| M188P | 0.107 | 0.144 | 0.118 | 0.119 |  | 0.0906 | 0.0787 |  | 0.101 | 0.114 |  |  |  | 0.0932 | 0.086 | 0.0559 | 0.0714 | 0.129 |  |
| C152P | 0.0528 | 0.0549 | 0.0561 |  | 0.0833 | 0.0595 |  | 0.0616 |  |  | 0.0566 | 0.0517 | 0.0576 | 0.0575 | 0.0562 |  | 0.0635 | 0.06 | 0.0413 |
| Q146M | 0.159 | 0.141 | 0.126 |  | 0.16 | 0.0895 |  | 0.122 |  |  | 0.152 | 0.233 |  | 0.116 | 0.155 | 0.139 |  | 0.165 | 0.127 |
| Q146T | 0.119 | 0.0998 | 0.118 | 0.115 | 0.112 | 0.102 | 0.104 | 0.0595 |  | 0.105 | 0.12 | 0.0959 |  | 0.0927 | 0.0748 |  | 0.0911 | 0.0912 | 0.0948 |
| Q146K | 0.119 | 0.177 | 0.147 | 0.102 |  | 0.11 | 0.114 | 0.113 | 0.0837 | 0.112 | 0.0984 | 0.105 |  | 0.11 | 0.0986 | 0.0867 | 0.105 | 0.0895 | 0.102 |
| F180N | 0.0528 | 0.059 | 0.0508 |  |  | 0.0849 | 0.048 | 0.0394 |  | 0.0515 | 0.0545 | 0.0487 |  | 0.0573 | 0.0351 |  | 0.0347 | 0.061 | 0.0594 |
| L190Y | 0.0846 | 0.0814 | 0.0948 | 0.104 | 0.106 | 0.0824 |  | 0.078 |  | 0.0785 | 0.0981 | 0.093 |  | 0.0901 | 0.0875 |  | 0.0927 | 0.082 | 0.0793 |
| L190M | 0.122 | 0.107 | 0.134 |  | 0.0727 |  |  |  |  | 0.0892 | 0.118 | 0.096 |  |  | 0.107 |  |  |  | 0.101 |
| K148R | 0.13 | 0.0997 | 0.126 | 0.156 | 0.115 | 0.125 |  |  | 0.0812 | 0.109 |  | 0.111 |  |  | 0.104 | 0.115 | 0.101 | 0.107 |  |
| K148E | 0.0875 | 0.106 | 0.0856 | 0.127 | 0.115 | 0.0944 | 0.109 | 0.0884 |  | 0.0883 | 0.107 | 0.0828 | 0.0767 | 0.0859 | 0.0844 | 0.102 | 0.0787 |  | 0.0879 |
| K148Q | 0.122 | 0.0877 | 0.0825 |  |  | 0.103 | 0.136 | 0.0938 |  |  |  | 0.0807 | 0.145 | 0.0876 | 0.113 | 0.0533 | 0.108 | 0.152 |  |
| S158G | 0.145 | 0.103 | 0.108 | 0.123 |  | 0.107 | 0.0853 | 0.118 | 0.0761 | 0.116 |  | 0.106 | 0.136 | 0.0791 | 0.104 | 0.0929 |  | 0.143 | 0.106 |
